Data from PubChem BioAssay AID686978 (National Center for Advancing Translational Sciences (NCATS), 2013).
The campaign covered roughly 420,000 compounds. About 64,000 (15%) were called active. Inconclusive results, whose numbers are uncertain, are shown with a selection of clear calls. The call rests on the fitted dose curve; in most records, active means well fitted inhibition curve with a large enough effect; inconclusive means small, poorly fitted or top-dose-only effect; inactive means flat fitted curve, though single readings scatter. No potency is given beside an inconclusive call; the fits are too rough.

Test: qHTS for Inhibitors of human tyrosyl-DNA phosphodiesterase 1 (TDP1): qHTS in cells in absence of CPT; further: nearly all actives have a fitted effect of over 55% in size
Details: DT40 Tdp1-/- hTDP1 cells, no CPT, ATP luminescence, 48 h; activity change, negative = growth inhibition: at 46.2 µM (top of the series) unless noted
Procedure, shortened: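 Luminescent ATP content (CellTiter-Glo) served as the growth readout. Knockout chicken DT40 cells expressing human TDP1 were exposed to compounds without camptothecin for a minimum 48 hr at 37 °C.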
On the % scale 0 is the no-effect control and ±100 the full control effect; potency means the concentration at half of the fitted maximal effect; tags describe the fitted curve by direction and shape.

Compound	Potency	activity change, negative = growth inhibition
CCOC(=O)C1(c2ccccc2)CCN(CC(=O)c2ccc(NC(C)=O)cc2)CC1	inconclusive [inhibitor, partial curve, poor fit]	–
CCOC(=O)c1cccc(NC(=O)c2cnc(N3CCCCC3)c3ccccc23)c1	active: 23.1 µM	–
O=C(c1ccc2c(=O)n(Cc3ccc4c(c3)OCO4)c(=S)[nH]c2c1)N1CCC2(CC1)OCCO2	inconclusive [inhibitor, single point]	–
COc1cc(/C=N/Nc2ccc(S(N)(=O)=O)cc2)cc(OC)c1OC	active: 20.6 µM	–
CN(C(=O)Cc1ccc(Cl)c(Cl)c1)[C@@H](CN1CCCC1)c1cccc(OCC(=O)O)c1	inactive	–
Cc1ccc(Oc2cc(NN3CCCCC3)c([N+](=O)[O-])cc2[N+](=O)[O-])c([N+](=O)[O-])c1	inconclusive [inhibitor, single point]	–
CCCCn1nnnc1C(CCc1ccccc1)N1CCC(n2c(=O)[nH]c3ccccc32)CC1 (stereo not given)	active: 11.6 µM	–
CCCCCn1c(=O)c(C(=O)NCc2ccc(Cl)cc2)c(O)c2ccccc21	inconclusive [inhibitor, single point]	–
COC1C=CC23c4cc5c(cc4CN(CC2O)C3C1)OCO5 (stereo not given)	active: 1.3 µM	–
C[C@]12CCC3C(CC[C@H]4C[C@@H](O)CC[C@]34C)C1CC[C@@H]2OC(=O)[C@H](N)CCCCN (stereo not given in full)	inconclusive [inhibitor, single point]	–
S=P(N1CCOCC1)(N1CC1)N1CC1	active: 6.51 µM	–
CCOc1ccc(CNCCc2ccc3c(c2)OCO3)cc1	inconclusive [inhibitor, single point]	–
O=C(c1ccc(Br)cc1)C12CN3CN(CN(C3)C1)C2	inconclusive [inhibitor, single point]	–
O=[N+]([O-])c1ccc(N2CCCC(C(F)(F)F)C2)c2ccncc12 (stereo not given)	active: 9.2 µM	–
O=c1[nH]c(=O)n(Cc2ccccc2Cl)c(O)c1/C=C1/C=CC=N1	active: 5.8 µM	–
CN(Cc1cccc(-c2ccncc2)c1)C(=O)Oc1ccccc1Cl	inconclusive [inhibitor, single point]	–
NNCc1cccc(O)c1	inconclusive [inhibitor, single point]	–
C/C=C1/CN2C3CC1C(CO)(C(=O)OC)C2Cc1c3n(C)c2ccccc12 (stereo not given)	inconclusive [inhibitor, partial curve, poor fit]	–
C/C(=N\N1CCN(C)CC1)c1c(O)[nH]c(=O)[nH]c1=O	inactive	–
CCCCCSc1cc(OC)c(CCN(C)C)cc1OC	inconclusive [inhibitor, single point]	–
Cc1cc(OCC(=O)OC(C)C)c2c3c(c(=O)oc2c1)CCCC3	inconclusive [inhibitor, single point]	–
Cc1ccc(CN2CCCN(Cc3ccc(Cl)cc3)S2(=O)=O)cc1	inactive	–
COc1cc(/C=C/c2nc3ccccc3c(=O)n2-c2ccc(Br)c(C)c2)ccc1O	active: 16.4 µM	–

Compound	Potency	activity change, negative = growth inhibition
CCOc1ccc(NCc2cccn2-c2nnc(N3CCC(C(=O)NCc4ccc(C)cc4)CC3)s2)cc1	active: 7.31 µM	–
O=S(=O)(c1ccc(Cl)cc1)N1Cc2cc(Br)ccc2-n2nncc2C1	active: 23.1 µM	–
O=C(CN1CCOCC1)c1cccc2ccccc12	inconclusive [inhibitor, partial curve]	–
O=C(CSc1nnnn1-c1ccccc1)Nc1ccc(N2CCOCC2)c(Cl)c1	inconclusive [inhibitor, partial curve, poor fit]	–
CC/C(=N\NC(=S)Nc1ccccc1)c1c(O)[nH]c(=O)[nH]c1=O	inactive	–
CC(C)CN(CC(C)C)c1ccc(C=C2C(=O)NC(=S)NC2=O)cc1[N+](=O)[O-]	active: 20.6 µM	–
CC(Cc1ccccc1)NCCn1cnc2c1c(=O)n(C)c(=O)n2C (stereo not given)	inconclusive [inhibitor, single point]	–
COc1nn(CSP(=S)(OC)OC)c(=O)s1	inconclusive [inhibitor, single point]	–
C[C@]1(O)CCC2C3CC[C@@H]4CC(=O)CC[C@]4(C)C3CC[C@@]21C (stereo not given in full)	inconclusive [inhibitor, single point]	–
NCCCCCC(=O)OC1N=C(c2ccccc2Cl)c2cc(Br)ccc2NC1=O (stereo not given)	inconclusive [inhibitor, single point]	–
Cc1cc(Oc2ccc(C(F)(F)F)cc2[N+](=O)[O-])c2c3c(c(=O)oc2c1)CCCC3	–	inconclusive: -33.8% [inhibitor]
CC(C)CC1C(C#N)=C(N)Oc2c1c(=O)oc1ccccc21 (stereo not given)	inconclusive [inhibitor, single point]	–
CCOC(=O)CNC(=O)N1Cc2cc(N3CCCCC3)ccc2-n2nncc2C1	inactive	–
CN(C)C(=O)On1c(-c2ccccc2)nc2ccc(Cl)cc21	active: 29.1 µM	–
CC1(C)C2C[C@@H](O)[C@]3(C)C(CC[C@@]4(C)[C@H](c5ccoc5)C[C@H]5O[C@]543)[C@@]2(C)[C@@H](O)C[C@H]1O (stereo not given in full)	–	inactive: -18.5% [at 9.04 µM]
CC1CN(c2ccc([N+](=O)[O-])cc2Cl)CCN1 (stereo not given)	inconclusive [inhibitor, single point]	–
O=C(COC(=O)c1cccc(O)c1)Nc1ccc(Cl)cc1C(=O)c1ccccc1	inconclusive [inhibitor, single point]	–
C[C@]12CCC3C(CC[C@]4(O)C[C@@H](O)CC[C@]34C=O)[C@@]1(O)CC[C@@H]2C1=CC(=O)OC1 (stereo not given in full)	active: 5.96 µM	–
CN1C[C@@H](CO)C=C2c3cccc4[nH]cc(c34)CC21 (stereo not given in full)	inactive	–
O=C(c1ccc(Cl)cc1)N1CCC2(CC1)OCCO2	inactive	–
COc1cccc(C(=O)C2CCCN(Cc3ccc4nsnc4c3)C2)c1 (stereo not given)	inconclusive [inhibitor, single point]	–
N=C(N)c1c(O)n(C2CCCCC2)c(=O)n(C2CCCCC2)c1=O	inconclusive [inhibitor, single point]	–
